# Experimental data from ChEMBL document CHEMBL5606458, “ASAP - ZIKV NS2B-NS3 protease fluorescence single point” (2024).
# The campaign covered roughly 2,700 compounds. About 160 (5.9%) showed an effect of 50% or more. The list shows a part of the results.
# Target: Nonstructural protein 3 (Zika virus) (UniProt A0A024AXB9)
# [1] = PRVABC59, Concentration 15.0 uM, Number of replicates 1.0
# [2] = PRVABC59, Concentration 10.0 uM, Number of replicates 1.0
# [3] = PRVABC59, Concentration 50.0 uM, Number of replicates 1.0
# UniProt A0A024AXB9, sequence (A0A024AXB9 as listed by the source): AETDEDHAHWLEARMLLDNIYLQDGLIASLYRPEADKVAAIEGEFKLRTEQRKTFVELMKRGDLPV
smiles,measurement,setting,value
O=C(N[C@H]1CCn2c(n[nH]c2=O)C1)c1n[nH]cc1[C@H]1CCCNC1,inhibition,"PRVABC59, Concentration 49.5 uM, Number of replicates 2.0, Standard deviation 0.6254746576482224 %",-1.69%
same,inhibition,"PRVABC59, Concentration 99.01 uM, Number of replicates 2.0, Standard deviation 1.6431527146733609 %",-3.14%
same,inhibition,"PRVABC59, Concentration 198.0 uM, Number of replicates 2.0, Standard deviation 2.922299536029049 %",-3.27%
Cc1cc(NC(=O)c2cc(Cl)ccc2NS(=O)(=O)c2ccc(Oc3ccccc3Cl)cc2)c(Cl)cc1F,inhibition,[1],27.9%
Cc1cc(Br)ccc1CNC(=O)C1CCN(c2ccc(C=O)cc2)CC1,inhibition,[2],-8.92%
O=C(Cc1ccccc1)N1CCN(C(=O)c2cc(Cl)ccc2NS(=O)(=O)c2ccc(Oc3ccccc3Cl)cc2)CC1,inhibition,[1],5.93%
O=C(Nc1ccc(Br)nc1)c1cc(Cl)ccc1NS(=O)(=O)c1ccc(Oc2ccccc2Cl)cc1,inhibition,[1],35.2%
O=C(c1ccco1)N1CCN(C(=O)c2cc(Cl)ccc2NS(=O)(=O)c2ccc(Oc3ccccc3Cl)cc2)CC1,inhibition,[1],2.79%
O=C(Nc1cccnc1Br)c1cc(Cl)ccc1NS(=O)(=O)c1ccc(Oc2ccccc2Cl)cc1,inhibition,[1],23%
CN(c1ccc(Cl)cc1C(N)=O)S(=O)(=O)c1ccc(Oc2ccccc2Cl)cc1,inhibition,"PRVABC59, Concentration 49.5 uM, Number of replicates 2.0, Standard deviation 3.2123410819579834 %",10.5%
same,inhibition,"PRVABC59, Concentration 99.01 uM, Number of replicates 2.0, Standard deviation 3.01646680666409 %",13.3%
same,inhibition,"PRVABC59, Concentration 198.0 uM, Number of replicates 2.0, Standard deviation 0.008705178678834097 %",13.5%
CCn1ncc(-c2ccccc2C(=O)Nc2cnn(C)c2)c1F,inhibition,"PRVABC59, Concentration 49.5 uM, Number of replicates 2.0, Standard deviation 1.0360539143884941 %",-2.37%
same,inhibition,"PRVABC59, Concentration 99.01 uM, Number of replicates 2.0, Standard deviation 1.667399290859496 %",-2.23%
same,inhibition,"PRVABC59, Concentration 198.0 uM, Number of replicates 2.0, Standard deviation 0.23383160062225883 %",0.357%
CC(C)N(CCN1CCCCCC1)C(=O)C1CCN(c2ccc(C=O)cc2)CC1,inhibition,[3],19.7%
O=C(Nc1nnc(-c2ccncc2)s1)c1cc(Cl)ccc1NS(=O)(=O)c1ccc(Oc2ccccc2Cl)cc1,inhibition,[1],29.5%
O=C(c1cc[nH]c(=O)c1)N1CCc2c(-c3nn[nH]n3)cccc21,inhibition,"PRVABC59, Concentration 49.5 uM, Number of replicates 2.0, Standard deviation 0.2323582732388635 %",2.31%
same,inhibition,"PRVABC59, Concentration 99.01 uM, Number of replicates 2.0, Standard deviation 0.7213210587279376 %",5.35%
same,inhibition,"PRVABC59, Concentration 198.0 uM, Number of replicates 2.0, Standard deviation 1.5234622398107893 %",11.7%
O=C(Nc1cnc2sccn2c1=O)c1cc(Cl)ccc1NS(=O)(=O)c1ccc(Oc2ccccc2Cl)cc1,inhibition,[1],26.4%
CNC(=O)c1cc(Cl)ccc1NS(=O)(=O)c1ccc(OC2CCCC2)nc1,inhibition,"PRVABC59, Concentration 49.5 uM, Number of replicates 2.0, Standard deviation 3.175342555286392 %",4.36%
same,inhibition,"PRVABC59, Concentration 99.01 uM, Number of replicates 2.0, Standard deviation 1.9630970281522893 %",7.37%
same,inhibition,"PRVABC59, Concentration 198.0 uM, Number of replicates 2.0, Standard deviation 1.686696646918694 %",11.5%
O=C(NCc1nnc[nH]1)c1ccn([C@H]2CCCNC2)n1,inhibition,"PRVABC59, Concentration 49.5 uM, Number of replicates 2.0, Standard deviation 1.340215645019518 %",-1.36%
same,inhibition,"PRVABC59, Concentration 99.01 uM, Number of replicates 2.0, Standard deviation 1.9020439305313104 %",-1.28%
same,inhibition,"PRVABC59, Concentration 198.0 uM, Number of replicates 2.0, Standard deviation 1.3156996029574284 %",-2.56%
C[C@]12CC3CC(NC(=O)c4cc(Cl)ccc4NS(=O)(=O)c4ccc(Oc5ccccc5Cl)cc4)(C1)C[C@](C)(C3)C2,inhibition,[1],26.5%
CCOc1ccc(CNC(=O)c2cc(Cl)ccc2NS(=O)(=O)c2ccc(Oc3ccccc3Cl)cc2)cc1,inhibition,[1],30.8%
COc1ccc(C(=O)C2CCN(C(=O)C3CCN(c4ccc(C=O)cc4)CC3)CC2)cc1,inhibition,[3],18.4%
O=Cc1ccc(N2CCC(C(=O)NCc3ccc(-c4ccccn4)cc3)CC2)cc1,inhibition,[2],12.2%
O=Cc1ccc(N2CCC(C(=O)NCC(=O)NCc3ccccc3)CC2)cc1,inhibition,[3],22.3%
CNC(=O)c1ccc(NS(=O)(=O)c2ccc(OC)cc2)cc1,inhibition,"PRVABC59, Concentration 49.5 uM, Number of replicates 2.0, Standard deviation 2.284364246912278 %",2.68%
same,inhibition,"PRVABC59, Concentration 99.01 uM, Number of replicates 2.0, Standard deviation 0.4793170577388709 %",1.73%
same,inhibition,"PRVABC59, Concentration 198.0 uM, Number of replicates 2.0, Standard deviation 0.7665269255037523 %",2.49%
COCCN(Cc1c(C)nn(C)c1C)C(=O)c1cc(Cl)ccc1NS(=O)(=O)c1ccc(Oc2ccccc2Cl)cc1,inhibition,[1],17%
Cn1cc(NC(=O)c2ccccc2C(F)(F)F)c(-c2c[nH]c3ncccc23)n1,inhibition,"PRVABC59, Concentration 49.5 uM, Number of replicates 2.0, Standard deviation 0.5899750414970726 %",-1.95%
same,inhibition,"PRVABC59, Concentration 99.01 uM, Number of replicates 2.0, Standard deviation 0.6097608637254436 %",-0.338%
same,inhibition,"PRVABC59, Concentration 198.0 uM, Number of replicates 2.0, Standard deviation 1.1817489526354386 %",-0.468%
c1ccc2c([C@H]3CCN(Cc4cccn5nccc45)C3)c[nH]c2c1,inhibition,"PRVABC59, Concentration 50.0 uM, Number of replicates 2.0, Standard deviation 2.1789074371414117 %",6.06%
same,inhibition,"PRVABC59, Concentration 100.0 uM, Number of replicates 2.0, Standard deviation 1.840536015731338 %",12%
same,inhibition,"PRVABC59, Concentration 200.0 uM, Number of replicates 2.0, Standard deviation 1.989213912887944 %",16.7%
O=C(Nc1c(Cl)cccc1[N+](=O)[O-])c1cc(Cl)ccc1NS(=O)(=O)c1ccc(Oc2ccccc2Cl)cc1,inhibition,[1],23.3%
CCN(CC)C(=O)C1CCN(C(=O)C2CCN(c3ccc(C=O)cc3)CC2)CC1,inhibition,[3],20.4%
Cc1nn(CCc2cc(F)cc(F)c2)cc1C1CCNCC1,inhibition,"PRVABC59, Concentration 49.5 uM, Number of replicates 2.0, Standard deviation 4.726749335771663 %",-0.042%
same,inhibition,"PRVABC59, Concentration 99.01 uM, Number of replicates 2.0, Standard deviation 5.310861160584991 %",0.775%
same,inhibition,"PRVABC59, Concentration 198.0 uM, Number of replicates 2.0, Standard deviation 2.819064792405374 %",1.96%
CCOc1ccc(CCNC(=O)C2CCN(c3ccc(C=O)cc3)CC2)cc1,inhibition,[3],21%
COCCCN(Cc1ccccc1)C(=O)C1CCN(c2ccc(C=O)cc2)CC1,inhibition,[3],27.2%
CCN(Cc1ccc(F)cc1)C(=O)c1cc(Cl)ccc1NS(=O)(=O)c1ccc(Oc2ccccc2Cl)cc1,inhibition,[1],27.3%
O=Cc1ccc(N2CCC(C(=O)NCc3cncc(Br)c3)CC2)cc1,inhibition,[2],25.5%
CC1(C)CCC(CN2CCN(C(=O)c3cc(Cl)ccc3NS(=O)(=O)c3ccc(Oc4ccccc4Cl)cc3)CC2)=C(c2ccc(Cl)cc2)C1,inhibition,[1],29.7%
O=C(NCc1cccc(-n2cccn2)c1)c1cc(Cl)ccc1NS(=O)(=O)c1ccc(Oc2ccccc2Cl)cc1,inhibition,[1],33.4%
O=C(Nc1n[nH]c2ccc(Br)cc12)c1cc(Cl)ccc1NS(=O)(=O)c1ccc(Oc2ccccc2Cl)cc1,inhibition,[1],36.5%
O=C(Nc1ccc(N2CCOCC2=O)cc1)c1cc(Cl)ccc1NS(=O)(=O)c1ccc(Oc2ccccc2Cl)cc1,inhibition,[1],48.5%
O=C(Nc1ncccc1OCc1ccccc1)c1cc(Cl)ccc1NS(=O)(=O)c1ccc(Oc2ccccc2Cl)cc1,inhibition,[1],21%
O=C(NCc1ccc(Br)cc1)c1cc(Cl)ccc1NS(=O)(=O)c1ccc(Oc2ccccc2Cl)cc1,inhibition,[1],27.5%
Cc1ccc2cccc(NC(=O)c3cc(Cl)ccc3NS(=O)(=O)c3ccc(Oc4ccccc4Cl)cc3)c2n1,inhibition,[1],20.8%
CC(=O)N[C@@H](CCCN)C(=O)Nc1cccc2c(Cl)cc(C)nc12,inhibition,"PRVABC59, Concentration 99.9 uM, Number of replicates 2.0, Standard deviation 3.96053156793845 %",2.63%
CNC(=O)c1ccc2n1CCN(S(=O)(=O)CCn1cnc3ccccc31)[C@@H]2C,inhibition,"PRVABC59, Concentration 49.5 uM, Number of replicates 2.0, Standard deviation 0.21013272273252268 %",-4.07%
same,inhibition,"PRVABC59, Concentration 99.01 uM, Number of replicates 2.0, Standard deviation 0.3030759645931105 %",-5.35%
same,inhibition,"PRVABC59, Concentration 198.0 uM, Number of replicates 2.0, Standard deviation 0.7496083375745093 %",-9.59%
CNC(=O)c1cc(Cl)ccc1NC(=O)CNc1ccc(S(N)(=O)=O)cc1F,inhibition,"PRVABC59, Concentration 49.5 uM, Number of replicates 2.0, Standard deviation 1.11548428656061 %",-4.54%
same,inhibition,"PRVABC59, Concentration 99.01 uM, Number of replicates 2.0, Standard deviation 0.8274198492953218 %",-5.58%
same,inhibition,"PRVABC59, Concentration 198.0 uM, Number of replicates 2.0, Standard deviation 0.7559141804613152 %",-7.96%
COc1ccc(-c2cc(NC(=O)c3cc(Cl)ccc3NS(=O)(=O)c3ccc(Oc4ccccc4Cl)cc3)[nH]n2)cc1,inhibition,[1],57.5%
CC(C)(C)OC(=O)NC1CN(C(=O)C2CCN(c3ccc(C=O)cc3)CC2)C1,inhibition,[3],20.6%
O=Cc1ccc(N2CCC(C(=O)N[C@H]3C[C@@H]3c3ccc(F)c(F)c3)CC2)cc1,inhibition,[3],17.3%
O=Cc1ccc(N2CCC(C(=O)N3CCC[C@H](c4ccccc4)C3)CC2)cc1,inhibition,[3],25.7%
